# Values joined by “and” are separate entries in the source; they are usually repeats but may differ in a detail not shown here. Equal values may be shown once. In all, about 110,000 compounds went through this assay and about 230 (0.21%) showed an effect of 50% or more. The list shows a part of the results.
# Target: DPAP1 (Plasmodium falciparum, UniProt Q8IIJ9)
# Test: primary screen, percent inhibition; read by cleavage of a fluorogenic dipeptide substrate; higher = more effect of the substance
# Design: species or system P. falciparum D10 trophozoite lysates; single well
# 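Also: 30 min substrate incubation versus DMSO and 10 µM JCP410 controls.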
# Sequence of DPAP1 (Q8IIJ9 whole entry, looked up): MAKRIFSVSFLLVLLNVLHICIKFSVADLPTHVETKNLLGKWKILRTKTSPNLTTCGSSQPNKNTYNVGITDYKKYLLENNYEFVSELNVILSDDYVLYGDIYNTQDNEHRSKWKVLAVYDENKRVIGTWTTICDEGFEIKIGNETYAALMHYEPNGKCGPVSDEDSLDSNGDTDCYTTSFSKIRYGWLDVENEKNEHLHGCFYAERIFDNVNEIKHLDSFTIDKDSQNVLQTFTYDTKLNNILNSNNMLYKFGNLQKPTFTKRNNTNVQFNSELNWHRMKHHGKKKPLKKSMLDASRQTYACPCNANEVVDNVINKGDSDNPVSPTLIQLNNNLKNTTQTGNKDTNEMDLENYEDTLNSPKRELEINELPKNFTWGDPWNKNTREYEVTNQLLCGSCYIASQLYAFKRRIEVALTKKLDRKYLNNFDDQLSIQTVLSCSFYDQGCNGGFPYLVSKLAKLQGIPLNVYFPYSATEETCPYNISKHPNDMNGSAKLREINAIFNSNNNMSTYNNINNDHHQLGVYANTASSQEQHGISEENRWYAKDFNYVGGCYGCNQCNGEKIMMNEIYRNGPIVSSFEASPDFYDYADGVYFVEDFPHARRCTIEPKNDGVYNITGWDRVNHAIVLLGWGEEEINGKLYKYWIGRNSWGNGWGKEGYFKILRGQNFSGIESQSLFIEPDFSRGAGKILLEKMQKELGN
row,Structure (SMILES),% Inhibition @ 10 uM
1,O=C(CC1S/C(=N\c2ccccc2)N(CCO)C1=O)Nc1cccc(Cl)c1 (stereo not shown),-7.23%
2,COC(=O)CNc1ccnc(O)c1C#N,1%
3,O=C1S/C(=C/c2cccnc2)C(=O)N1Cc1ccccc1,-0.564%
4,O=C(O)CCSc1nc(O)cc(-c2ccccc2)n1,-4.59%
5,Cc1ccnc(NS(=O)(=O)c2ccccc2)c1,0.685%
6,O=C(O)C1CCCCC1C(=O)Nc1cnn(Cc2ccccc2)c1 (stereo not shown),2.69%
7,O=C(NCCc1ccccc1)c1ccc(C(=O)c2ccccc2)o1,-0.171%
8,Cc1cc(OCC(=O)NC2CCCC2)cc(C)c1Cl,1.04%
9,O=C(NC1CCCCC1)c1csc2c1CCCC2,-4.12%
10,CCC(C)NC(=O)c1ccc2c(Cl)c3c(nc2c1)CCCC3 (stereo not shown),5.88%
11,Cc1ccc(/C(O)=C/C=N/c2ccc(S(=O)(=O)Nc3cc(C)nc(C)n3)cc2)cc1,0.658%
12,O=C1N=C(N2CCCCC2)S/C1=C\c1ccc2c(c1)OCO2,3.87%
13,CCOc1ccc(N2C(=O)C3C(C(C)=O)=NN(c4cccc(C)c4)C3C2=O)cc1 (stereo not shown),-3.87%
14,CC1=C(c2ccc(C(C)C)cc2)S(=O)(=O)N=C1N1CCC2(CC1)OCCO2,5.23%
15,CN(Cc1ccccc1)C(=O)CN(c1ccccc1)S(C)(=O)=O,-3.38%
16,CCNC(=O)c1c(C)c(C(=O)OCC)n(CC)c1C,-7.18%
17,CCc1ccc(Oc2nc3ccccn3c(=O)c2/C=C(\C#N)S(=O)(=O)c2ccc(Cl)cc2)cc1,1.19%
18,CCOC(=O)N1CCN(S(=O)(=O)c2ccc(OC)cc2)CC1,-5.85%
19,CN1CCN(CCc2nnc(S)n2-c2ccc([N+](=O)[O-])cc2)CC1,-6.36%
20,COc1cc(-c2ccc(NC(=O)c3ccc(C)o3)c(OC)c2)ccc1NC(=O)c1ccc(C)o1,-5.13%
21,CSC1=C(C#N)C(c2cccs2)CC(=O)N1 (stereo not shown),-2.44%
22,CCCCOc1ccc(C(=O)Nc2sc3c(c2C(=O)OCC)CC(C)(C)OC3)cc1,5.41%
23,COc1ccc(NC(=O)c2cc(OC)c(OC)c(OC)c2)cn1,-7.18%
24,O=C1CC(NC23CC4CC(CC(C4)C2)C3)C(=O)N1c1ccc(Cl)cc1 (stereo not shown),1.4%
25,Cc1c2cnn(CC(=O)N3CCOCC3)c(=O)c2c(C)n1Cc1ccccc1,-5.81%

row,Structure (SMILES),% Inhibition @ 10 uM
1,Nc1cc(=O)n2c(n1)SCC2CS(=O)(=O)c1ccccc1 (stereo not shown),-1.52%
2,COc1ccc(CCN2C(=O)CCn3c2nc2c3c(=O)[nH]c(=O)n2C)cc1OC,1.7%
3,c1ccc(-c2csc3ncnc(N4CCCCC4)c23)cc1,0.812%
4,N=C(NC(=O)c1sc2ccccc2c1Cl)Nc1nc2ccccc2o1,0.343%
5,CCOC(=O)C1=C(CSc2ccc3ccccc3n2)NC(=O)NC1c1cc(C)ccc1C (stereo not shown),-2.63%
6,Cc1ccc(C(=O)Nc2cccc(Oc3ccc(C(=O)O)c(C(=O)O)c3)c2)cc1,2.05%
7,O=C(Cn1c2ccccc2c2nc3n(c(=O)c21)CCS3)c1ccc(F)cc1,-4.04%
8,Cc1nc(NCc2ccc3c(c2)OCO3)nc2c1C(=O)c1ccccc1-2,2.31%
9,CCCCN(CC)CCCNC(=O)c1ccc(CS(=O)(=O)c2ccccc2C)o1,0.458%
10,O=C(NCc1ccco1)C1CCC(CNS(=O)(=O)c2cccc3cccnc23)CC1 (stereo not shown),-6.07%
11,O=C(NCCN1CCOCC1)c1ccc(-c2ccccc2)cc1,-2.09%
12,Cc1c(C(=O)Nc2cc(Cl)c(Cl)cc2Cl)cccc1[N+](=O)[O-],0.827%
13,Cc1nnc(NC(=O)c2nc(SCc3ccc(F)cc3)ncc2Cl)s1,-0.946%
14,O=C1CC(Sc2ncccn2)C(=O)N1c1ccc(-c2ccccc2)cc1 (stereo not shown),-4.15%
15,CCOc1ccc(CCNC(=O)c2ccc(CS(=O)Cc3ccc(Cl)cc3)o2)cc1OCC (stereo not shown),-0.999%
16,COc1cccc(-c2ccc(S(=O)(=O)N[C@@H](CC(C)C)C(=O)NCC#N)cc2)c1,-0.207%
17,CCSC1=C(C#N)C(c2ccccc2Cl)C(C(C)=O)=C(C)N1 (stereo not shown),-5.94%
18,Cc1cccc(NC(=O)C(Cc2ccc([N+](=O)[O-])cc2)N2C(=O)c3ccccc3C2=O)c1 (stereo not shown),-8.03%
19,CCCCNCC(=O)n1c(=O)sc2ccccc21,1.57%
20,Cc1ccnc(NC(=O)CN2C(=O)c3ccccc3C2=O)c1,-3.41%
21,CCCCc1ccc(-c2csc(/C(C#N)=C\c3sccc3C)n2)cc1,1.13%
22,CCCCSc1nc2c(c(=O)[nH]c(=O)n2C)n1CCC,0.851%
23,CC(=O)NC12CC3CC(C)(C1)CC(NC(C)=O)(C3)C2,2.46%
24,CCCNC(=O)CN(c1ccc(Cl)cc1)S(=O)(=O)c1ccc(C)cc1,0.913%
25,Cc1c(C)n(Cc2ccccc2)c2ccc(C(=O)N3CCCC3)cc12,1.78%

row,Structure (SMILES),% Inhibition @ 10 uM
1,FC(F)(F)c1nc(NCc2ccccc2)nc2c1CCCCC2,5.36%
2,O=C(C1c2ccccc2Oc2ccccc21)N1N=C(C(F)F)CC1(O)C(F)F (stereo not shown),0.658%
3,CCCCN(CCCC)CCn1cnc2c3cc(F)ccc3nc-2c1O,-3.52%
4,CN1C(=O)NC(=O)/C(=C\c2cn(Cc3ccccc3Cl)c3ccccc23)C1=O,-4.74%
5,CCc1cccc(C)c1NC(=O)c1ccn(C)n1,-5.28%
6,CCOc1ccc(C(=O)C2=C(O)C(=O)N(Cc3ccco3)C2c2ccc(F)cc2)cc1 (stereo not shown),2.36%
7,Cc1ccc(C(=O)N2CCN(C)CC2)cc1,0.827%
8,COc1cc(C(=O)NCCNC(=O)c2ccncc2)cc(OC)c1OC,-1.4%
9,CCCCC(=O)Nc1nc2c(C)cccc2s1,-3.16%
10,O=C(O)C1CCCCC1C(=O)Nc1ccc(N2CCOCC2)c2nonc12 (stereo not shown),2.38%
11,Cc1cccc(C(=O)O/N=C(\N)Cc2cccc3ccccc23)c1,-1.4%
12,CC(C)(C)C1CCC(OC(=O)CCC(=O)Nc2cccc3ccccc23)CC1 (stereo not shown),9.4%
13,Cc1ccc(C2(O)CSC3=C(C#N)C(c4ccc(C(F)(F)F)cc4)CC(=O)N32)cc1 (stereo not shown),3.24%
14,COc1cccc(NC(=O)CCC2CCCC2)c1,2.79%
15,Cc1ccc(CS(=O)Cc2ccc(C(=O)NCc3cccnc3)o2)cc1 (stereo not shown),2.83%
16,O=P(O)(Cc1ccccc1O)c1ccccc1,2.6%
17,NC(=O)C1CCN(S(=O)(=O)c2ccc([N+](=O)[O-])cc2)CC1,0.962%
18,CC1=C(C(=O)OC2CCCC2C)C(c2ccc(Cl)cc2)NC(=O)N1 (stereo not shown),4.34%
19,O=C(Nc1ccc(-c2nc3ccccc3o2)cc1)c1cccs1,1.57%
20,COc1cc(/C=C2/C(=N)N3OC(C)=CC3=NC2=O)cc(Cl)c1OCc1cccc(C)c1,3.63%
21,Nc1nc(-c2ccc(Br)cc2)cs1,-1.8% and 0.878%
22,Cc1cccc(NC(=O)Nc2cc(C)ccc2C)c1,-3.28%
23,CC1=C(C(=O)N2CCc3ccccc3C2)C2(CCCCC2)OC1=O,-3.7%
24,Cc1nn(Cc2noc(C(=O)NCCC34CC5CC(CC(C5)C3)C4)n2)c(C)c1Br,-5.53%
25,Cn1nnnc1SCC(=O)Nc1nc2ccccc2s1,-2.84%

row,Structure (SMILES),% Inhibition @ 10 uM
1,COc1ccc(-c2cc(C(=O)N3CCN(c4ncccn4)CC3)c3ccccc3n2)c(OC)c1,-3.72%
2,CCCCC(=O)NC(c1ccccc1OC)c1ccc2cccnc2c1O (stereo not shown),-5.28%
3,Cn1nnc(NC(=O)CSc2nnnn2-c2ccc(C(=O)O)cc2)n1,8.3%
4,O=C1CC(NCc2ccc3c(c2)OCO3)C(=O)N1c1ccc(Cl)cc1 (stereo not shown),8.71%
5,CCOC(=O)C1=C(CN2CCN(c3ccc(Cl)nn3)CC2)NC(=O)NC1c1ccc(Cl)cc1 (stereo not shown),0.708%
6,c1ccc(N2CCN(C3CN4CCC3CC4)CC2)cc1 (stereo not shown),-3.27%
7,CCC/C(=N\c1ccc(OC)cc1)C1=C(O)CC(C)(C)CC1=O,0.169%
8,CCN1CCC(N2CCN(c3ccc(C(C)=O)cc3)CC2)CC1,3.48%
9,O=[N+]([O-])c1ccccc1CN1CCC2(C=Cc3ccccc32)CC1,7.87%
10,Cc1ccccc1NC(=O)c1cccc(NC(=O)C(F)(F)F)c1,-2.32%
11,O=c1c2c(nc3n1CCCCC3)-c1ccccc1CC21CCCCC1,4.57%
12,COCCNC(=O)c1ccc2c(c1)sc1nc(-c3cccc(OC)c3)cn12,6.88%
13,CCOC(=O)CCn1c(CC(=O)OCC)nc2ccccc21,4.61%
14,O=C(Nc1c2c(nc3ccccc13)N(c1cccc(Cl)c1)CC2)C12CC3CC(CC(C3)C1)C2,4.54%
15,CCCCn1c(CN2CCN(C(=O)OCC)CC2)nc2c1c(=O)[nH]c(=O)n2C,-1.21%
16,COc1ccc(/C=C/C(=O)Nc2ccc(OC)cc2OC)cc1,3.61%
17,Cc1noc(C(=O)NCc2ccco2)c1Cl,-1.92%
18,CCCC[C@H](NC(=O)[C@H](CS(=O)(=O)Cc1ccccc1C)NC(=O)N1CCOCC1)C(=O)c1nc2ccccc2o1,1.35%
19,COc1ccc(N2C(=O)CC(NCCc3ccc(Cl)cc3Cl)C2=O)cc1 (stereo not shown),2.82%
20,O=S(=O)(NCc1ccccc1)c1ccc(OCCn2cnnn2)cc1,-2.19%
21,CC(C)N(C(=O)c1ccc2c(c1)OCCO2)C(C)C,-2.94%
22,CCN(CC)CCN(CC)CC1=CC[C@H]2C[C@@H]1C2(C)C,10.4%
23,COc1ccc(/C=c2\sc3n(c2=O)CCN=3)c(OC)c1,-6.95%
24,CCC(Oc1ccccc1)C(=O)Nc1nnc(S(=O)(=O)NCC2CCCO2)s1 (stereo not shown),3.3%
25,O=C(CN1C2=NCCCN2c2ccccc21)c1ccc(O)cc1,0.431%

# From article PMC6919601, “Identification of Plasmodium dipeptidyl aminopeptidase allosteric inhibitors by high throughput screening” (PLoS ONE, 2019)
